Results on 5 molecules are retold here after the supplement of paper PMC4604168 (melanoma cell lines).

Molecules are shown by their SMILES. The list shows a part of the results. Repeats are few or missing, and single values can be far off.

Common to all, as to assay: cell count relative to DMSO control; melanoma cells; higher = more viable cells
Holding throughout (conditions): library dose: low library concentration; 72 h

Assay [1] deals with WM115.
The subject of assay [2] is WM1716.
Assay [3] concerns WM1745.
The subject of assay [4] is WM3526.
Assay [5] concerns WM3619.
Assay [6] concerns WM451Lu.
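Also: cell number obtained by counting DAPI-stained nuclei in high-throughput microscope images with image analysis software, screen run in 1,536-well plates.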

On to `C=CCn1c(=O)c2cnc(Nc3ccc(N4CCN(C)CC4)cc3)nc2n1-c1cccc(C(C)(C)O)n1` + Cc1ccc(NC(=O)c2cccc(N(C)C)c2)cc1NC(=O)c1ccc(O)cc1 [ZM336372] (first compound 0.02 µM, partner dose 2 µM), for which the cell count in assay [1] stood at 81.5%; in assay [2] it was 93%; in assay [3], 86.4%; in assay [4], 93.9%; in assay [5], 54.7%; in assay [6] it was 127%.

For `Cc1nc(Nc2ncc(C(=O)Nc3c(C)cccc3Cl)s2)cc(N2CCN(CCO)CC2)n1` [dasatanib] + O=C(O)C(=O)Nc1sc2c(c1C(=O)O)CCNC2 [TCS401] (first compound 0.004 µM, partner dose 1.66667 µM), the cell count in assay [1] came to 68.5%; in assay [2], 60.3%; in assay [3], 53.3%; in assay [4], 91.4%; in assay [5] it was 69.8%; in assay [6] it was 83.2%.

Consider `C=CCn1c(=O)c2cnc(Nc3ccc(N4CCN(C)CC4)cc3)nc2n1-c1cccc(C(C)(C)O)n1` + Oc1cc(-c2nc(-c3ccccc3)[nH]c2-c2ccncc2)ccc1Cl [L779450] (first compound 0.02 µM, partner dose 0.2 µM), for which the cell count in assay [1] came out at 76.5%; in assay [2], 82.1%; in assay [3], 77.4%; in assay [4] it was 68.7%; in assay [5], 67.8%; in assay [6], 98.2%.

Turning to `OCCn1cc(-c2cnc3nnn(Cc4ccc5ncccc5c4)c3n2)cn1` + COc1ccc(-c2ccc3c(N4CCOCC4)nc(N4C[C@@H](C)O[C@@H](C)C4)nc3n2)cc1CO [KU0063794] (first compound 1 µM, partner dose 0.02 µM), the cell count in assay [1] came to 95.6%; in assay [2] it was 107%; in assay [3], 94.2%; in assay [4], 97.9%; in assay [5] it was 105%; in assay [6], 62.3%.

As to `Cc1nc(Nc2ncc(C(=O)Nc3c(C)cccc3Cl)s2)cc(N2CCN(CCO)CC2)n1` [dasatanib] + COc1ccc(-c2ccc3c(N4CCOCC4)nc(N4C[C@@H](C)O[C@@H](C)C4)nc3n2)cc1CO [KU0063794] (first compound 0.004 µM, partner dose 0.02 µM), the cell count in assay [1] came out at 73%; in assay [2], 60.1%; in assay [3] it was 65.9%; in assay [4] it was 89.2%; in assay [5], 74.1%; in assay [6], 83.1%.
